# “And” between values parts separate entries of the source, which are not always exact repeats. Identical values can stand only once.
# T1: human VEGF165 (human, UniProt P15692 27-191)
# T1 construct: mature; Two sources were used (GSK in-house HEK293); also called hVEGF165; rhVEGF165
# T1 sequence (looked up): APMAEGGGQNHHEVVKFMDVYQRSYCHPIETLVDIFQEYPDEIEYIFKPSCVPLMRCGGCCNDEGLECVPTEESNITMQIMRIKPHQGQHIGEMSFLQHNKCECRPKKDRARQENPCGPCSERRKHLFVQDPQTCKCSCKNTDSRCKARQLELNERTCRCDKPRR
# Legend:
# [1] = target: T1, human VEGF165; test: SPR Biacore T100, Protein A capture, VEGF165 analyte, 37 C, 1:1 model
# [2] = target: T1, human VEGF165; test: MSD RBA, VEGF binding to coated VEGFR1, no pre-incubation
# [3] = target: T1, human VEGF165; test: MSD RBA, VEGF binding to coated VEGFR2, no pre-incubation
# [4] = target: T1, human VEGF165; test: MSD RBA, VEGF binding to coated VEGFR1
# [5] = target: T1, human VEGF165; test: MSD RBA, VEGF binding to coated VEGFR2 (first set)
# [6] = target: T1, human VEGF165; test: SPR Biacore T100, Protein A capture, VEGF165 analyte, 37 C, 1:1 model; remark: listed apart in the source
# [7] = target: T1, human VEGF165; test: MSD RBA, VEGF binding to coated VEGFR2 (second set)
# [8] = target: T1, human VEGF165; test: ITC, VEGF165 titrated into construct, 25 C, 1:1 model
# [9] = target: T1, human VEGF165; test: SPR Biacore T100, Protein A capture, VEGF165 analyte, 37 C, 1:1 model; remark: listed apart in the source
# [10] = target: T1, human VEGF165; test: SPR Biacore T100, Protein A capture, VEGF165 analyte, 37 C, 1:1 model (biphasic curves)
# [11] = target: T1, human VEGF165; test: SPR Biacore T100, Protein A capture, VEGF165 analyte, 37 C, 1:1 model; remark: listed apart in the source
# [12] = target: T1, human VEGF165; test: SPR Biacore T100, Protein A capture, VEGF165 analyte, 37 C, 1:1 model (row printed a second time)
# [13] = target: T1, human VEGF165; test: SPR Biacore T100, Protein A capture, VEGF165 analyte, 37 C, 1:1 model (fit not ideal)
# [14] = target: T1, human VEGF165; test: SPR Biacore T100, Protein A capture, VEGF165 analyte, 37 C, 1:1 model; remark: listed apart in the source
binder,measurement,setting,value
"DMS30001 (C-terminal Fc fusion of K-044-232 dAb, GS(TVAAPSGS)x3 Linker, Fc-dAb) (Fc fusion, Vk Fc-dAb; dimer) [human IgG1 Fc and a few adjoining residues not shown]GSTVAAPSGSTVAAPSGSTVAAPSGSDIQMTQSPSSLSASVGDRVTITCRASQWIGPELSWYQQKPGKAPKLLIYHGSILQSGVPSRFSGSGSGTDFTLTISSLQPEDFATYYCQQYMYYPETFGQGTKVEIKR",Kd,[1],2 pM
"DMS30002 (C-terminal Fc fusion of K-044-236 dAb, GS(TVAAPSGS)x3 Linker, Fc-dAb) (Fc fusion, Vk Fc-dAb; dimer) [human IgG1 Fc and a few adjoining residues not shown]GSTVAAPSGSTVAAPSGSTVAAPSGSDIQMTQSPSSLSASVGDRVTITCRASQWIGPELSWYQQKPGKAPKLLIYHGSILQSGVPSRFSGSGSGTDFTLTISSLQPEDFATYYCQQYMYYPKTFGQGTKVEIKR",Kd,[1],3 pM
"DMS30005 (N-terminal Fc fusion of K-044-251 dAb, AAAS Linker, dAb-Fc) (Fc fusion, Vk dAb-Fc; dimer) ESTDIQMTQSPSSLSASVGDRVTITCRASQWIGPELKWYQQKPGKAPKLLIYHGSILQSGVPSRFSGSGSGTDFTLTISSLQPEDFATYYCQQYMYYPETFGQGTKVEIKRAA[human IgG1 Fc and a few adjoining residues not shown]",EC50,[2],0.207 µg/mL and 2.76 nM
same,Max. % Inhibition,[2],82.2%
same,EC50,[3],0.0955 µg/mL and 1.27 nM
same,Max. % Inhibition,[3],85.8%
DMS30009 (DT02-K-044-085-AS Linker-Fc-Albumin Domain 3 Linker-DT02-K-044-085 Vk-Vk dAb-Fc-dAb) (Fc fusion) DIQMTQSPSSLSASVGDRVTITCRASQWIGPELKWYQQKPGKAPKLLIYHGSILQSGVPSRFSGSGSGTDFTLTISSLQPEDFATYYCQQYMYYPHTFGQGTKVEIKR[human IgG1 Fc and a few adjoining residues not shown]EVDETYVPKEFNAETFTFHADDIQMTQSPSSLSASVGDRVTITCRASQWIGPELKWYQQKPGKAPKLLIYHGSILQSGVPSRFSGSGSGTDFTLTISSLQPEDFATYYCQQYMYYPHTFGQGTKVEIKR,EC50,[4],0.00417 µg/mL and 0.042 nM
same,Max. % Inhibition,[4],92.6%
same,EC50,[5],0.00552 µg/mL and 0.055 nM
same,Max. % Inhibition,[5],86.6%
same,Kd,[6],2.3 pM
DMS30011 (DT02-K-044-251-AS Linker-Fc-Albumin Domain 3 Linker-DT02-K-044-251 Vk-Vk dAb-Fc-dAb) (Fc fusion) DIQMTQSPSSLSASVGDRVTITCRASQWIGPELKWYQQKPGKAPKLLIYHGSILQSGVPSRFSGSGSGTDFTLTISSLQPEDFATYYCQQYMYYPETFGQGTKVEIKR[human IgG1 Fc and a few adjoining residues not shown]EVDETYVPKEFNAETFTFHADDIQMTQSPSSLSASVGDRVTITCRASQWIGPELKWYQQKPGKAPKLLIYHGSILQSGVPSRFSGSGSGTDFTLTISSLQPEDFATYYCQQYMYYPETFGQGTKVEIKR,Kd,[6],4.6 pM
DMS30010 (DT02-K-044-085-AAAS Linker-Fc-Albumin Domain 3 Linker-DT02-K-044-085 Vk-Vk dAb-Fc-dAb) (Fc fusion) DIQMTQSPSSLSASVGDRVTITCRASQWIGPELKWYQQKPGKAPKLLIYHGSILQSGVPSRFSGSGSGTDFTLTISSLQPEDFATYYCQQYMYYPHTFGQGTKVEIKRAA[human IgG1 Fc and a few adjoining residues not shown]EVDETYVPKEFNAETFTFHADDIQMTQSPSSLSASVGDRVTITCRASQWIGPELKWYQQKPGKAPKLLIYHGSILQSGVPSRFSGSGSGTDFTLTISSLQPEDFATYYCQQYMYYPHTFGQGTKVEIKR,Kd,[6],3.1 pM
DMS30012 (DT02-K-044-251-AAAS Linker-Fc-Albumin Domain 3 Linker-DT02-K-044-251 Vk-Vk dAb-Fc-dAb) (Fc fusion) DIQMTQSPSSLSASVGDRVTITCRASQWIGPELKWYQQKPGKAPKLLIYHGSILQSGVPSRFSGSGSGTDFTLTISSLQPEDFATYYCQQYMYYPETFGQGTKVEIKRAA[human IgG1 Fc and a few adjoining residues not shown]EVDETYVPKEFNAETFTFHADDIQMTQSPSSLSASVGDRVTITCRASQWIGPELKWYQQKPGKAPKLLIYHGSILQSGVPSRFSGSGSGTDFTLTISSLQPEDFATYYCQQYMYYPETFGQGTKVEIKR,Kd,[6],4.6 pM
"DMS30025 (DT02-K-044-085-AS-Fc (T113P)-GS(TVAAPSGS)x3 Linker-DT02-K-044-085 dAb-Fc-dAb) (Fc fusion, Vk-Vk dAb-Fc-dAb; dimer; also called DMS300025) DIQMTQSPSSLSASVGDRVTITCRASQWIGPELKWYQQKPGKAPKLLIYHGSILQSGVPSRFSGSGSGTDFTLTISSLQPEDFATYYCQQYMYYPHTFGQGTKVEIKRAS[human IgG1 Fc with T225P (EU numbers) not shown]GSTVAAPSGSTVAAPSGSTVAAPSGSDIQMTQSPSSLSASVGDRVTITCRASQWIGPELKWYQQKPGKAPKLLIYHGSILQSGVPSRFSGSGSGTDFTLTISSLQPEDFATYYCQQYMYYPHTFGQGTKVEIKR",EC50,[7],0.00486 µg/mL and 0.049 nM
same,Max. % Inhibition,[7],82.4%
"DMS30028 (N-terminal Fc fusion of K-044-085 dAb (IgG1 Hinge)) (Fc fusion, dimer; also called N085 extg1; DMS30028ITC) DIQMTQSPSSLSASVGDRVTITCRASQWIGPELKWYQQKPGKAPKLLIYHGSILQSGVPSRFSGSGSGTDFTLTISSLQPEDFATYYCQQYMYYPHTFGQGTKVEIKRV[human IgG1 Fc with changes not shown]",Ka,[8],1.45e+07 M⁻¹
same,N (VEGF165 (monomer)/antibody),[8],1.3
same,ΔH,[8],-17.3 kcal/mol
same,ΔS,[8],-25.4 cal/mol/deg
same,Kd,[9],10.3 pM
same,koff,[9],0.000107 s⁻¹
same,kon,[9],1.04e+07 M⁻¹ s⁻¹
same,Kd,[10],6.43 pM
same,koff,[10],6.6e-05 s⁻¹
same,kon,[10],1.03e+07 M⁻¹ s⁻¹
"C085 alb d 1 (C-terminal Fc fusion of K-044-085 dAb (Albumin Domain 1)) (Fc fusion, Vk Fc-dAb; dimer; also called C085 Alb DOM1) [human IgG1 Fc not shown]HKDDNPNLPRLVRPEVDVMDIQMTQSPSSLSASVGDRVTITCRASQWIGPELKWYQQKPGKAPKLLIYHGSILQSGVPSRFSGSGSGTDFTLTISSLQPEDFATYYCQQYMYYPHTFGQGTKVEIKR",Kd,[11],27 pM
same,koff,[11],0.000112 s⁻¹
same,kon,[11],4.15e+06 M⁻¹ s⁻¹
same,Kd,[12],27 pM
same,koff,[12],0.000112 s⁻¹
same,kon,[12],4.15e+06 M⁻¹ s⁻¹
"C085 alb d 3-TFHAD (C-terminal Fc fusion of K-044-085 dAb (Albumin Domain 3-TFHAD)) (Fc fusion, not certain; also called C085 Alb DOM3) [human IgG1 Fc not shown]EVDETYVPKEFNAETFDIQMTQSPSSLSASVGDRVTITCRASQWIGPELKWYQQKPGKAPKLLIYHGSILQSGVPSRFSGSGSGTDFTLTISSLQPEDFATYYCQQYMYYPHTFGQGTKVEIKR",Kd,[11],13.2 pM
same,koff,[11],8.12e-05 s⁻¹
same,kon,[11],6.17e+06 M⁻¹ s⁻¹
"C085 G4Sx3 (C-terminal Fc fusion of K-044-085 dAb ((Gly4Ser)x3)) (Fc fusion, Vk Fc-dAb; dimer) [human IgG1 Fc not shown]GGGGSGGGGSGGGGSDIQMTQSPSSLSASVGDRVTITCRASQWIGPELKWYQQKPGKAPKLLIYHGSILQSGVPSRFSGSGSGTDFTLTISSLQPEDFATYYCQQYMYYPHTFGQGTKVEIKR",Kd,[11],29.1 pM
same,koff,[11],0.00018 s⁻¹
same,kon,[11],6.19e+06 M⁻¹ s⁻¹
"C085 G4Sx4 (C-terminal Fc fusion of K-044-085 dAb ((Gly4Ser)x4)) (Fc fusion, Vk Fc-dAb; dimer) [human IgG1 Fc not shown]GGGGSGGGGSGGGGSGGGGSDIQMTQSPSSLSASVGDRVTITCRASQWIGPELKWYQQKPGKAPKLLIYHGSILQSGVPSRFSGSGSGTDFTLTISSLQPEDFATYYCQQYMYYPHTFGQGTKVEIKR",Kd,[11],23.1 pM
same,koff,[11],0.000141 s⁻¹
same,kon,[11],6.11e+06 M⁻¹ s⁻¹
"N085 fib x4 (N-terminal Fc fusion of K-044-085 dAb ((TGLDSP)x4)) (Fc fusion, Vk dAb-Fc; dimer; also called N085 Fibrx4; N085 Fibronectin 4) DIQMTQSPSSLSASVGDRVTITCRASQWIGPELKWYQQKPGKAPKLLIYHGSILQSGVPSRFSGSGSGTDFTLTISSLQPEDFATYYCQQYMYYPHTFGQGTKVEIKRTGLDSPTGLDSPTGLDSPTGLD[human IgG1 Fc and a few adjoining residues not shown]",Kd,[13],7.15 pM
same,koff,[13],4.83e-05 s⁻¹
same,kon,[13],6.76e+06 M⁻¹ s⁻¹
"DMS30027 (C-terminal Fc fusion of K-044-085 dAb (Helical Linker)) (Fc fusion, dimer; also called C085 Helical) [human IgG1 Fc not shown]KEAAAKEAAAKEAAAKELAAKEAAAKEAAAKEAAAKELAADIQMTQSPSSLSASVGDRVTITCRASQWIGPELKWYQQKPGKAPKLLIYHGSILQSGVPSRFSGSGSGTDFTLTISSLQPEDFATYYCQQYMYYPHTFGQGTKVEIKR",Kd,[14],6.21 pM
same,koff,[14],6.23e-05 s⁻¹
same,kon,[14],1e+07 M⁻¹ s⁻¹
"DMS30029 (N-terminal Fc fusion of K-044-085 dAb (ASTHP linker)) (Fc fusion, dimer; also called N085 T2P; N085 T113P) DIQMTQSPSSLSASVGDRVTITCRASQWIGPELKWYQQKPGKAPKLLIYHGSILQSGVPSRFSGSGSGTDFTLTISSLQPEDFATYYCQQYMYYPHTFGQGTKVEIKRAS[human IgG1 Fc with T225P (EU numbers) not shown]",Kd,[10],8.06 pM
same,koff,[10],7.57e-05 s⁻¹
same,kon,[10],9.4e+06 M⁻¹ s⁻¹
